Data published in PubChem BioAssay (Tox21).
The shares of active, inactive and inconclusive entries below differ from those in the screen. For some of these results: Potencies of inconclusive entries are doubtful fits and often do not repeat. Active and inactive are the calls of the source. Unless noted, the call rests on the fitted dose curve; in most records, active means well fitted curve in the direction sought with a large enough effect in the repeat runs; inconclusive means weak or mixed curves; inactive means no such curve, though single readings can be large; an effect the other way counts as inactive or inconclusive.

How the values were obtained:
[1] = qHTS assay to identify small molecule agonists of H2AX (AID 1224845; active means well fitted activation curve with a large enough effect in the signal ratio in the repeat runs, not every such curve was filed as active; inconclusive means weak or mixed curves; the % refers to the signal ratio; further: potency means the concentration at half of the fitted maximal effect); details: CHO-K1 phospho-H2AX Ser139 HTRF, 3 h; series mostly up to 154 µM
How it was run: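 Wild-type CHO-K1 cells plated overnight, then exposed 3 hr at 37C to compounds at 15 concentrations (0.76% DMSO). Lysed, then HTRF anti-pH2AX(S139)-cryptate/anti-H2AX-d2 detection after 24 hr at room temperature; emissions 665 and 620 nm.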

[2] = qHTS RealTime-Glo MT Cell Viability Assay in HEK293 cells - 32 hour (AID 1224868); further: nearly all actives have a fitted effect of over 50% in size; further: potency means the concentration at half of the fitted maximal effect
How it was run: (§1)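 Assay medium contained NanoLuc luciferase plus cell-permeant prosubstrate, added with HEK293 cells at 600 cells/well. After 5 h at 37 C/5% CO2 compounds were added; plates stayed at 37 C for 40 h with serial luminescence reads.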

[3] = A CellTox Green Cytotoxicity Assay to monitor cytotoxicity in HEK293 cells - 40 hour (AID 1224871); further: potency means the concentration at half of the fitted maximal effect; nearly all actives have a fitted effect of over 45% in size
How it was run: (§2)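 Homogeneous no-lysis format: HEK293 cell suspension mixed with CellTox Green reagent, seeded, incubated 5 h at 37 C/5% CO2, then dosed by pintool with compound in DMSO.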

[4] = qHTS RealTime-Glo MT Cell Viability Assay in HEK293 cells - 40 hour (AID 1224874); details: RealTime-Glo luminescence; max response: hits give low values; further: potency means the concentration at half of the fitted maximal effect; nearly all actives have a fitted effect of over 50% in size
How it was run: (§3)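 Measured as luminescence from the same continuously cultured HEK293 wells at successive time points (0, 8, 16, 24, 32, 40 h) after compound addition. Reagent present from seeding; dosing at 5 h; incubation 37 C.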

[5] = A CellTox Green Cytotoxicity Assay to monitor cytotoxicity in HEK293 cells - 24 hour (AID 1224875); further: nearly all actives have a fitted effect of over 45% in size
How it was run: as §2

[6] = A CellTox Green Cytotoxicity Assay to monitor cytotoxicity in HEK293 cells - 32 hour (AID 1224881); further: potency means the concentration at half of the fitted maximal effect; nearly all actives have a fitted effect of over 40% in size
How it was run: as §2

[7] = qHTS RealTime-Glo MT Cell Viability Assay in HEK293 cells - 16 hour (AID 1224872); further: potency means the concentration at half of the fitted maximal effect; nearly all actives have a fitted effect of over 50% in size
How it was run: as §1

[8] = qHTS RealTime-Glo MT Cell Viability Assay in HepG2 cells - 40 hour (AID 1224870); further: potency means the concentration at half of the fitted maximal effect; nearly all actives have a fitted effect of over 50% in size
How it was run: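 HepG2 cells mixed with RealTime-Glo MT reagents (NanoLuc plus cell-permeant prosubstrate) were seeded at 600 cells/well, incubated 5 h at 37 C/5% CO2, then pinned with compounds in DMSO; nonlytic luminescence tracked viability during 40 h treatment.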

[9] = A CellTox Green Cytotoxicity Assay to monitor cytotoxicity in HepG2 cells - 40 hour (AID 1224879); further: potency means the concentration at half of the fitted maximal effect; nearly all actives have a fitted effect of over 40% in size
How it was run: (§4)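 Fluorescent DNA-binding dye, 600 HepG2 cells/well, 5 h preincubation then compound in DMSO; same plates read at 0–40 h, 37 C.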

[10] = qHTS RealTime-Glo MT Cell Viability Assay in HepG2 cells - 24 hour (AID 1224867); further: nearly all actives have a fitted effect of over 50% in size
How it was run: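 qHTS, HepG2, 600 cells/well, RealTime-Glo (NanoLuc + prosubstrate) added with cells; 5 h preincubation; DMSO compound addition; 37 C; luminescence at 0/8/16/24/32/40 h.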

[11] = A CellTox Green Cytotoxicity Assay to monitor cytotoxicity in HepG2 cells - 24 hour (AID 1224878); further: nearly all actives have a fitted effect of over 45% in size
How it was run: as §4

[12] = qHTS RealTime-Glo MT Cell Viability Assay in HEK293 cells - 0 hour (AID 1224880); further: potency means the concentration at half of the fitted maximal effect; nearly all actives have a fitted effect of over 45% in size
How it was run: as §3

[13] = qHTS assay to identify small molecule antagonists of the estrogen related receptor (ERR) signaling pathway from Tox21 library (AID 1224848); further: nearly all actives have a fitted effect of over 50% in size
How it was run: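 Tox21 10K compounds in DMSO tested for ERR pathway antagonism in NTP's ERR cell line; 18 h, 37 C exposure; ONE-Glo luminescence.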

Measured: Potency
Tags describe the fitted curve by direction and shape or compound fluorescence and quenching.

O=C=NCCCCCCN=C=O
inactive: [1] | [5]
inconclusive: [2] 6.03 µM [rising, partial curve] | [3] 30.2 µM [activator, partial curve, poor fit] | [4] 5.37 µM [rising, partial curve] | [6] 38 µM [activator, partial curve, poor fit]

CCOC(=O)c1ccc(I)cc1
inconclusive: [1] 102 µM [activator, single point] | [2] 31.2 µM [cytotoxic, partial curve, poor fit] | [7] 31.2 µM [cytotoxic, partial curve]

Oc1cc2c(cc1O)[C@H]1c3ccc(O)c(O)c3OC[C@@]1(O)C2
inactive: [2]
inconclusive: [1] 32.3 µM [cytotoxic] | [8] 62.4 µM [falling, single point] | [3] 49.6 µM [activator, single point] | [7] 55.6 µM [cytotoxic, single point] | [9] 55.6 µM [activator, single point] | [6] 49.6 µM [activator, partial curve, poor fit]

CCCOc1ccc2nc(NC(=O)OC)[nH]c2c1
inconclusive: [1] 17.5 µM [fluorescent, partial curve] | [2] 0.19 µM [cytotoxic, full curve] | [4] 0.169 µM [cytotoxic, full curve]
inactive: [10] | [11]

CCCC(CCC)C(=O)O
inactive: [1] | [2]

COC(=O)/C=C/c1ccccc1
inconclusive: [1] 127 µM [activator] | [2] 54.9 µM [rising, single point] | [7] 54.9 µM [rising, single point] | [4] 54.9 µM [rising, single point] | [12] 54.9 µM [rising, single point]

CC1COC(=O)O1 (stereo unspecified)
inactive: [1] | [13] | [5]
